Laboratory results as given in the supplement of paper PMC3334620.
In all, about 33,000 sequences were measured (“E-score (-0.5 to 0.5)”: median about -0.054, highest 2% from about 0.39 on). Some of the results follow.

target: Ylr278c (UniProt Q05854); test: PBM E-score (8-mer binding enrichment) (E-score (-0.5 to 0.5)); higher = stronger / more preferred TF binding; most listed sequences are background and not binding sites; details: protein concentration: 200 nM; construct: GST-DNA-binding domain
Experimental: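 Universal 'all 10-mer' protein binding microarrays (Agilent AMADID 015681) probed with GST-tagged S. cerevisiae TFs (full-length or DBD) made by in vitro transcription/translation (PURExpress), about 100-200 nM. Bound TF was detected with fluorescent anti-GST. Each ungapped 8-mer (which stands for itself and its reverse complement) is scored by the PBM enrichment score (E-score), a modified Wilcoxon-Mann-Whitney statistic from -0.5 to +0.5, computed with the Universal PBM Analysis Suite. Scale: above 0.35 generally sequence-specific binding.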

Sequence | PBM E-score
AGCACCGA | 0.21
ATACTGGA | 0.0349
AAAGGATT | -0.128
CAACCACA | 0.0392
CTGACAAA | -0.194
AAGGCAAT | -0.108
ATAGCCTG | -0.24
AAGCCCAG | -0.143
GGTGTTGA | -0.138
CGCCCCGC | 0.328
ACATAGAC | -0.142
GACTGCAA | -0.271
ACACATCC | -0.0358
AACGTACT | -0.0443
TCCAATAA | 0.0431
CCGGGTGA | 0.299
CTCGGCAG | 0.16
AAGTGCGT | -0.076
AAGCACCT | -0.175
GCATAAAA | -0.0172
CACCTGCG | 0.107
ATATTGGC | -0.141
ACTCGTGA | -0.295
CGTCCCGC | 0.205
AACGTTCG | -0.0135

Sequence | PBM E-score
AAGATAGC | 0.0485
AAGCTTTG | -0.0399
ATGTGAGC | -0.253
TCAGGTCA | -0.0552
GAAAGAGA | 0.0627
ACCGTCCC | 0.0916
CTTCTAGA | -0.215
ATCCGCTG | 0.138
AACTTCCG | 0.433
ACTTTAAT | -0.0435
ATGCAGTA | -0.0142
ACGGAGCG | 0.396
AACAGAAT | -0.189
GTATTCAA | 0.0214
GATACACA | -0.184
CATTTTGG | -0.181
CTAAATCA | -0.21
AGAAATAG | -0.123
GTACCCGA | 0.0289
ACACTGCT | -0.345
CTCTCCGA | 0.394
TGCCAGAA | -0.232
GAGAAGAA | 0.0471
ACTGAGAG | -0.25
AGCGATTG | -0.259

Sequence | PBM E-score
ACTTCTAA | 0.038
GCCCGTCC | 0.153
TACTTGCA | -0.111
ACGGTACG | -0.0708
CCTACATA | 0.0183
GGGTCTGA | -0.0165
AGTCGAAA | -0.105
AGGTTCTG | -0.265
GTGGCATA | -0.175
TAGTTTCA | -0.0254
GTAAATAA | -0.157
GACAGTCA | -0.172
AGTAGCTC | 0.0277
ATATGCCG | 0.253
TACATGAA | -0.162
CACCTCGG | 0.268
ACTGGACT | -0.329
GGAACTCC | 0.393
AGGACATA | -0.278
GACATAAA | -0.0366
GTCCTGTA | 0.102
GTATCCTA | -0.201
CACAGACG | -0.17
ATTAGGTC | -0.0155
AGCACTTA | -0.124

Sequence | PBM E-score
GTTGTTCA | -0.11
TAGTACTA | -0.387
GAATTAAA | -0.0378
ACCGCCGG | 0.403
CTACGTTA | -0.0506
ATTATTAG | -0.0802
GGTCTCAA | -0.12
AGCATGCT | -0.352
CGACACAG | 0.108
CCCAACAA | -0.0374
CTAGATCC | 0.0123
CCTAAACC | -0.00994
GCCTGTGA | -0.373
GTCGTCAC | -0.152
ACGGTGAA | 0.0953
ATTTTGGG | -0.0616
CAAACTTA | -0.0135
CACATACA | -0.223
AACTACCA | -0.0978
GGTCGTCA | -0.105
CACCACGG | -0.00474
AAGCTTAA | -0.176
GCTCTGCA | -0.156
CTAAACCC | 0.0252
TTCTCAAA | -0.0763

Sequence | PBM E-score
CCAGTTTC | -0.069
CACCCAGG | -0.112
CCACGGAG | 0.418
AAGCTAAG | -0.151
TCCAAGAA | -0.169
TATTGCGA | 0.0372
CTGGTATA | -0.283
TCCCGCCA | 0.182
GGCTTATA | -0.101
ACCGAGTA | 0.0881
ATTGGGCG | 0.0375
AATCACGC | 0.0211
CTATTTAC | 0.0753
ATATATTG | 0.0216
GAGCTGAA | -0.0759
CGTCTCAC | -0.156
AATGCAAG | -0.16
CAATCCGC | 0.197
CGAGAGAC | -0.122
GCGAGTGA | -0.0752
AACATCAA | -0.0318
ACTAAGAT | -0.101
TGGTAAAA | 0.0307
CGTAGGTC | -0.142
ATAGAGGG | -0.076

Sequence | PBM E-score
ACTTCTCC | 0.283
ATACCTAT | -0.174
CAAGCCTG | -0.242
GCGTTCAC | 0.011
ATGTTGCC | -0.036
ACTACAGT | -0.22
TCATGTAA | -0.135
AGCGGCCC | 0.0789
AAATGCGT | -0.0671
GAGTCTGA | -0.147
ATTTGTAC | -0.138
CATAGACA | -0.148
AAGATTAA | -0.069
GAAACCTA | -0.184
GACCCTTA | -0.173
CATTCCTC | 0.0106
AAGCTACA | -0.184
ATGCTTAA | 0.0745
CATCACGC | 0.0744
AATTGTAA | -0.172
ACAGGGAA | -0.118
AGCCCAGC | -0.0788
AGCTAATC | -0.0907
TAGCCAGA | -0.21
GTCCACGA | -0.17

Sequence | PBM E-score
GGAGCTAC | 0.169
ACGCTCGC | -0.194
AGAGTCTG | -0.336
TGTTACAA | -0.0929
GTACTCGA | -0.147
GAGATCTA | -0.177
CATATGAA | -0.00398
GCCCACCA | -0.21
CCCAAGCG | 0.0327
AACTTGTA | -0.0794
ATTAACAC | 0.0305
CTTTGGTA | -0.0286
AGGAACGG | 0.0984
CTTAAAGA | -0.114
CATAACAG | -0.328
GAGTGTCA | -0.0234
AGAGTGCA | -0.142
TAGACGAA | -0.3
AAGAACCC | -0.0398
ACCATAAA | -0.0424
CCCAATAC | 0.00541
GGAGTGTA | 0.127
